The campaign covered roughly 150,000 compounds. About 540 (0.36%) showed an effect of 50% or more. Some of the results follow.

The experiment relates to Plasmodium falciparum. Put plainly: Primary screen in NF54 nanoGlo assay, in single point, at 2uM, 72h; a lower Z score goes with more inhibition. It counts as functional, Erythrocyte. The conditions noted are these: timepoint 72 hour.
Broadly, the % Inhibition is the relative decrease from the control value, in per cent. Turning to `Cc1cc(C)n(C(=O)C2C(C)ON(c3ccccc3)C2c2ccccc2)n1` (stereo unspecified), the “% Inhibition” value is on record as -1% and the Z score was 0.16.
For `COc1ccccc1[C@H]1CCN(S(=O)(=O)c2ccc3c(c2)CCO3)C1`, in that order: -5% and 0.8.
The like results for `Fc1ccc(Oc2ncnc3oc(-c4ccccc4)cc23)c(Cl)c1` were, in that order, -11% and 1.38.
The like results for `c1ccc2c(c1)CCOC21CCN(Cc2ncc[nH]2)CC1` were, in that order, -3% and 0.51.
For `Cc1cnc(CN(C[C@H]2CCCO2)C2CCCC2)cn1`, the “% Inhibition” value is given as -8% and the Z score is 0.7.
For `O=S(=O)(NCCc1c[nH]c2ncccc12)c1cccc(Br)c1`, in that order: -15% and 1.77.
In the case of `CC1CCC(C)N1C1CCCN(S(=O)(=O)c2ccc(Cl)c(C(F)(F)F)c2)C1` (stereo unspecified), the “% Inhibition” value is recorded as -4% and the Z score was determined as 0.74.
With `CCCc1ncncc1C(=O)NC(C)(C)COCC`, the “% Inhibition” value is recorded as -8% and the Z score is on record as 1.28.
For the compound `O=C1CN(c2ccc(C(F)(F)F)cn2)C2CCCCC2N1` (stereo unspecified), the “% Inhibition” value is recorded as 15% and the Z score is -2.06.
For `CC(C)n1ccc(C(=O)N2CCOC[C@@H]2C)n1`, in that order: -14% and 2.66.
The like results for `CCCOc1ccc(N(CC(F)F)S(C)(=O)=O)cc1` were, in that order, -14% and 1.9.
Take `Cc1ccc(C(=O)c2ccc(NC(=O)c3ncn(-c4ccc(Cl)cc4)n3)cc2)cc1`: the “% Inhibition” value came out at 38% and the Z score is -4.91.
For `CC(=O)c1ccc(F)c(-c2ccc(C(=O)N3CC[C@@H](O)C3)cc2)c1`, in that order: -23% and 2.68.
The like results for `Cc1ccc2[nH]c(Nc3ccc4c(c3)OCO4)nc2c1` were, in that order, -5% and 0.66.
For `O=C(CN1CCO[C@H](c2cccs2)C1)Nc1cccnn1`, in that order: -5% and 0.86.
For the compound `CC[C@]1(O)CCOC2(CCN(Cc3cnn(C)c3)CC2)C1`, the “% Inhibition” value is listed as -17% and the Z score is given as 2.77.
The like results for `C[C@H]1Cc2ccccc2N1CCNC(=O)c1[nH]nc2c1CCCC2` were, in that order, 2% and -0.27.
The like results for `Cc1c2c(=O)n(-c3nc4ccccc4s3)n(CC(=O)Nc3ccc(F)cc3)c2cc(=O)n1CCCN1CCOCC1` were, in that order, -30% and 3.47.
As to `CCOc1cccc2c1OCC(C(=O)N1CCN(C)C(=O)C1)=C2`, the “% Inhibition” value is given as -12% and the Z score is recorded as 2.34.
The like results for `Fc1cccc(F)c1-c1nc(Cn2ccnn2)co1` were, in that order, -1% and 0.12.
For `CCOc1ccc(N2CCC[C@H](CNC(=O)c3ccccc3)C2)nn1`, in that order: 1% and -0.14.
For `O=C(O)c1nccnc1C(=O)Nc1cccc2c1ccn2Cc1ccccc1`, in that order: -24% and 2.77.
With `C[C@@H]1C[C@@H](NC(=O)NCC2CCC(C#N)CC2)c2ccccc2O1` (stereo partly specified), the “% Inhibition” value is recorded as 3% and the Z score was -0.5.
The like results for `CN(C(=O)c1cccc(N2CCCC2=O)c1)c1ccc2ccccc2n1` were, in that order, 1% and -0.12.
For `COCOc1ccc2ccccc2c1-c1nc(C2OCCO2)cs1`, in that order: -8% and 0.93.
`Nc1cc(N2CC[C@H](F)C2)c(Cl)cn1`: the “% Inhibition” value turned out to be 6% and the Z score was -1.21.
`O=C(Cn1cnnn1)N1CC[C@@](F)(c2cccc(C(F)(F)F)c2)C1`: the “% Inhibition” value was -8% and the Z score was determined as 0.85.
Turning to `Cc1cc(-c2nc(-c3ccc(F)cc3)no2)c(C)n1CC(=O)Nc1ccc(F)c(F)c1`, the “% Inhibition” value was -4% and the Z score came out at 0.72.
For `COc1ccc(CN2C(=O)O[C@H]3CN(c4nc(C)cc(C)n4)C[C@H]32)cc1OC`, in that order: 0% and 0.03.
For `CCn1ncnc1[C@H](C)NC(=O)Cn1cc(C(F)(F)F)ccc1=O`, in that order: -2% and 0.38.
The like results for `CNc1ncnc2cc(C(=O)NC3CCC(OC(F)F)CC3)ccc12` (stereo unspecified) were, in that order, -8% and 1.07.
On to `CCCN(CC(F)F)C(=O)[C@@H]1COc2ccc(Br)cc21`, for which the “% Inhibition” value is reported as -7% and the Z score stood at 0.6.
For `CN(C)c1ccnc(NC(=O)NC[C@H]2OCCN(C)[C@@H]2c2cnn(C)c2)n1`, in that order: 2% and -0.35.
In the case of `COc1ccccc1N1CCN(C(=O)[C@H]2CCc3[nH]cnc3C2)CC1`, the “% Inhibition” value is on record as -13% and the Z score came out at 2.24.
The like results for `Cc1nc(C)c(C(=O)NC[C@H]2CN(Cc3ccccc3)C(=O)CO2)s1` were, in that order, -9% and 1.2.
On to `CC(C)=CCN1CCC([C@]2(Cc3ccccc3Cl)NC(=O)N(CC3CC3)C2=O)CC1`, for which the “% Inhibition” value worked out at 0% and the Z score is -0.05.
As for `Cc1nc(CC(=O)N(CC(F)(F)F)c2cccc(Cl)c2)cs1`, the “% Inhibition” value was -9% and the Z score is listed as 1.14.
For `Cc1ccc2[nH]c(CCNC(=O)C[C@H](C)N3CCOCC3)nc2c1`, in that order: 1% and -0.22.
The like results for `CCOC1CC(N(C)S(=O)(=O)c2cc(C(N)=O)n(C)c2)C1(C)C` (stereo unspecified) were, in that order, 2% and -0.17.
Turning to `CCNC(=O)N(Cc1c(C)nn(-c2ccccc2)c1Oc1cccc(OC)c1)C1CC1`, the “% Inhibition” value is 6% and the Z score is -0.78.
For `CCN(C(=O)[C@@H](N)C(C)C)c1ccccc1`, in that order: -12% and 1.6.
`C#Cc1cccc(C(=O)N2CCC(N3CCC(C(=O)NC[C@H]4CCCO4)CC3)CC2)c1`: the “% Inhibition” value is recorded as -10% and the Z score amounted to 1.53.
In the case of `COc1cccc(-c2nc(-c3ccc(S(=O)(=O)N4CCCC4)cc3)no2)c1OC`, the “% Inhibition” value is -8% and the Z score stood at 1.27.
The like results for `CN(C)C(=O)[C@]12CCS(=O)(=O)N(C)[C@@H]1CCN(C(=O)NCCc1ccccc1)C2` were, in that order, -12% and 1.76.
The like results for `Fc1cccc(Cl)c1CN1CC(c2nc(-c3ncccn3)no2)C1` were, in that order, 3% and -0.48.
The like results for `COCCn1cnc2oc(C)c(C(=O)Nc3cccnc3)c2c1=O` were, in that order, -5% and 0.86.
Take `CCN1CCc2ncnc(N3CCc4sccc4[C@@H]3C)c2C1`: the “% Inhibition” value came out at 3% and the Z score is -0.44.
For `Cn1cc(C(=O)N2CCC(c3nc4ccccc4s3)CC2)c2ccccc21`, in that order: -30% and 3.48.
For `O=C(c1cc[nH]c(=O)c1)N1CCCCC[C@@H]1Cc1ccccc1Cl`, in that order: -5% and 0.82.
For `C[C@@H]1CN(C(=O)OC(C)(C)C)C[C@H](C)N1Cc1ncccn1`, the “% Inhibition” value is on record as -11% and the Z score is 1.15.
`O=C(Cn1cnnn1)Nc1ccc(F)cc1Nc1ccccc1F`: the “% Inhibition” value was found to be 11% and the Z score is listed as -1.44.
The like results for `COc1ccccc1Cn1cnc2cc(C(=O)N3CCNC(=O)C3)ccc21` were, in that order, -9% and 1.02.
`O=C(C[C@H](c1c[nH]c2ccc(Cl)cc12)C1CCCCC1)N1CCOCC1`: the “% Inhibition” value is on record as -11% and the Z score is reported as 1.43.

For the origin of these results see ChEMBL document CHEMBL4888484, “Replenishing the malaria drug discovery pipeline: Screening and hit evaluation of the MMV Hit Generation Library 1 (HGL1) against asexual blood stage Plasmodium falciparum ,using a nano luciferase reporter read-out” (2022).
